Results reported in the supplement of paper PMC4967469.

compound: Cc1cc(N2CCOCC2)cc2[nH]c(-c3c(NC[C@@H](O)c4cccc(Cl)c4)cc[nH]c3=O)nc12 [BMS-536924]; test: Viability of human cancer cell lines after 72 h of drug (GDSC screen); conditions: top dose 4 µM; screen: GDSC drug entry 1091; top dose inferred
Procedure: (§1)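 Human cancer cell lines in 384-well plates, medium with 10% serum, drug for 72 h over a 256-fold dose range (nine 2-fold or five 4-fold steps up to the top dose). Adherent lines were fixed and stained with the nucleic acid dye Syto60, suspension lines read with resazurin; signal relative to control wells, capped at 0 and 100%. One two-parameter sigmoid per drug and line, fitted in a mixed model over all curves with the slope shared within a line.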

Row | Cell Line | AUC | IC50 [µM]
1 | HA7-RCC (kidney, adherent) | 0.925 | > 4
2 | HD-MY-Z (Hodgkin lymphoma, adherent) | 0.93 | > 4
3 | HL-60 (acute myeloid leukaemia, suspension) | 0.956 | > 4
4 | HT-144 (melanoma, adherent) | 0.932 | > 4
5 | JAR (urogenital system, adherent) | 0.963 | > 4
6 | KALS-1 (glioma, adherent) | 0.973 | > 4
7 | KASUMI-1 (acute myeloid leukaemia, suspension) | 0.588 | 0.437
8 | KG-1 (acute myeloid leukaemia, suspension) | 0.836 | 2.25
9 | MOLM-13 (acute myeloid leukaemia, suspension) | 0.9 | > 4
10 | MPP-89 (mesothelioma, adherent) | 0.947 | > 4
11 | MZ7-mel (melanoma, adherent) | 0.938 | > 4
12 | NCI-H1581 (large cell lung carcinoma, semi-adherent) | 0.872 | 3.28
13 | NU-DUL-1 (B-cell lymphoma, suspension) | 0.992 | > 4
14 | QIMR-WIL (acute myeloid leukaemia, suspension) | 0.969 | > 4
15 | RL95-2 (endometrium, adherent) | 0.907 | > 4
16 | RPMI-8226 (myeloma, suspension) | 0.889 | 3.51
17 | THP-1 (acute myeloid leukaemia, suspension) | 0.969 | > 4

same assay, conditions: top dose 5.12 µM; screen: GDSC drug entry 62

Row | Cell Line | AUC | IC50 [µM]
18 | AM-38 (glioma, semi-adherent) | 0.974 | > 5.12
19 | COR-L279 (small cell lung carcinoma, suspension) | 0.947 | > 5.12
20 | DOHH-2 (B-cell lymphoma, suspension) | 0.875 | 4.84
21 | GOTO (neuroblastoma, adherent) | 0.843 | 4.38
22 | H-EMC-SS (chondrosarcoma, adherent) | 0.979 | > 5.12
23 | HA7-RCC (kidney, adherent) | 0.819 | 3.31
24 | HD-MY-Z (Hodgkin lymphoma, adherent) | 0.942 | > 5.12
25 | HL-60 (acute myeloid leukaemia, suspension) | 0.465 | 0.26
26 | HT-144 (melanoma, adherent) | 0.762 | 2.03
27 | JAR (urogenital system, adherent) | 0.969 | > 5.12
28 | KALS-1 (glioma, adherent) | 0.926 | > 5.12
29 | KASUMI-1 (acute myeloid leukaemia, suspension) | 0.937 | > 5.12
30 | KG-1 (acute myeloid leukaemia, suspension) | 0.932 | > 5.12
31 | KMS-12-BM (myeloma, suspension) | 0.914 | > 5.12
32 | MOLM-13 (acute myeloid leukaemia, suspension) | 0.383 | 0.156
33 | MPP-89 (mesothelioma, adherent) | 0.828 | 4.57
34 | MZ7-mel (melanoma, adherent) | 0.92 | > 5.12
35 | NCI-H1581 (large cell lung carcinoma, semi-adherent) | 0.926 | > 5.12
36 | NCI-H1963 (small cell lung carcinoma, suspension) | 0.982 | > 5.12
37 | NU-DUL-1 (B-cell lymphoma, suspension) | 0.9 | 4.26
38 | QIMR-WIL (acute myeloid leukaemia, suspension) | 0.873 | 4.67
39 | RL95-2 (endometrium, adherent) | 0.653 | 0.845
40 | RPMI-8226 (myeloma, suspension) | 0.92 | > 5.12
41 | THP-1 (acute myeloid leukaemia, suspension) | 0.969 | > 5.12

compound: CC(C)=CC[C@@H](O)C1=CC(=O)c2c(O)ccc(O)c2C1=O [Shikonin]; test: as above; conditions: top dose 16 µM; top dose inferred
Procedure: as §1

Row | Cell Line | AUC | IC50 [µM]
42 | AM-38 (glioma, semi-adherent) | 0.33 | 0.333
43 | COR-L279 (small cell lung carcinoma, suspension) | 0.968 | > 16
44 | DOHH-2 (B-cell lymphoma, suspension) | 0.413 | 0.58
45 | GOTO (neuroblastoma, adherent) | 0.657 | 2.91
46 | H-EMC-SS (chondrosarcoma, adherent) | 0.692 | 4.1
47 | HA7-RCC (kidney, adherent) | 0.502 | 1.02
48 | HD-MY-Z (Hodgkin lymphoma, adherent) | 0.364 | 0.419
49 | HL-60 (acute myeloid leukaemia, suspension) | 0.601 | 1.84
50 | HT-144 (melanoma, adherent) | 0.417 | 0.577
51 | JAR (urogenital system, adherent) | 0.682 | 3.2
52 | KALS-1 (glioma, adherent) | 0.514 | 1.11
53 | KASUMI-1 (acute myeloid leukaemia, suspension) | 0.189 | 0.117
54 | KG-1 (acute myeloid leukaemia, suspension) | 0.579 | 1.61
55 | KMS-12-BM (myeloma, suspension) | 0.3 | 0.309
56 | MOLM-13 (acute myeloid leukaemia, suspension) | 0.64 | 2.38
57 | MPP-89 (mesothelioma, adherent) | 0.498 | 0.985
58 | MV-4-11 (leukaemia, suspension) | 0.307 | 0.322
59 | MY-M12 (leukaemia, suspension) | 0.342 | 0.342
60 | MZ7-mel (melanoma, adherent) | 0.169 | 0.0936
61 | NCI-H1581 (large cell lung carcinoma, semi-adherent) | 0.715 | 3.82
62 | NCI-H1963 (small cell lung carcinoma, suspension) | 0.212 | 0.165
63 | NU-DUL-1 (B-cell lymphoma, suspension) | 0.243 | 0.219
64 | RL95-2 (endometrium, adherent) | 0.467 | 0.811
65 | RPMI-8226 (myeloma, suspension) | 0.427 | 0.65
66 | THP-1 (acute myeloid leukaemia, suspension) | 0.496 | 0.978

compound: Cc1cccc(-c2[nH]c(C(C)(C)C)nc2-c2ccc3nccnc3c2)n1 [SB-525334]; test: as above; conditions: top dose 20 µM; top dose inferred
Procedure: as §1

Row | Cell Line | AUC | IC50 [µM]
67 | AM-38 (glioma, semi-adherent) | 0.953 | > 20
68 | GOTO (neuroblastoma, adherent) | 0.653 | 3.53
69 | H-EMC-SS (chondrosarcoma, adherent) | 0.836 | 19.2
70 | HA7-RCC (kidney, adherent) | 0.965 | > 20
71 | HD-MY-Z (Hodgkin lymphoma, adherent) | 0.901 | > 20
72 | HL-60 (acute myeloid leukaemia, suspension) | 0.926 | > 20
73 | HT-144 (melanoma, adherent) | 0.982 | > 20
74 | JAR (urogenital system, adherent) | 0.956 | > 20
75 | KALS-1 (glioma, adherent) | 0.945 | > 20
76 | KG-1 (acute myeloid leukaemia, suspension) | 0.893 | 19.5
77 | KMS-12-BM (myeloma, suspension) | 0.983 | > 20
78 | MOLM-13 (acute myeloid leukaemia, suspension) | 0.946 | > 20
79 | MPP-89 (mesothelioma, adherent) | 0.916 | > 20
80 | MV-4-11 (leukaemia, suspension) | 0.99 | > 20
81 | MY-M12 (leukaemia, suspension) | 0.87 | > 20
82 | MZ7-mel (melanoma, adherent) | 0.858 | 17.4
83 | NCI-H1581 (large cell lung carcinoma, semi-adherent) | 0.984 | > 20
84 | NCI-H1963 (small cell lung carcinoma, suspension) | 0.969 | > 20
85 | NU-DUL-1 (B-cell lymphoma, suspension) | 0.962 | > 20
86 | QIMR-WIL (acute myeloid leukaemia, suspension) | 0.867 | 17.1
87 | RL95-2 (endometrium, adherent) | 0.987 | > 20
88 | RPMI-8226 (myeloma, suspension) | 0.979 | > 20
89 | THP-1 (acute myeloid leukaemia, suspension) | 0.967 | > 20

compound: Cc1ccc(-n2nc(C(C)(C)C)cc2NC(=O)Nc2ccc(OCCN3CCOCC3)c3ccccc23)cc1 [BIRB 0796]; test: as above; conditions: top dose 10 µM; top dose inferred
Procedure: as §1

Row | Cell Line | AUC | IC50 [µM]
90 | COR-L279 (small cell lung carcinoma, suspension) | 0.99 | > 10
91 | DOHH-2 (B-cell lymphoma, suspension) | 0.985 | > 10
92 | GOTO (neuroblastoma, adherent) | 0.882 | > 10
93 | H-EMC-SS (chondrosarcoma, adherent) | 0.789 | 5.9
94 | HA7-RCC (kidney, adherent) | 0.958 | > 10
95 | HD-MY-Z (Hodgkin lymphoma, adherent) | 0.962 | > 10
96 | HT-144 (melanoma, adherent) | 0.981 | > 10
97 | JAR (urogenital system, adherent) | 0.977 | > 10
98 | KG-1 (acute myeloid leukaemia, suspension) | 0.986 | > 10
99 | MPP-89 (mesothelioma, adherent) | 0.973 | > 10
100 | MZ7-mel (melanoma, adherent) | 0.979 | > 10
101 | QIMR-WIL (acute myeloid leukaemia, suspension) | 0.987 | > 10

compound: CCNc1cc(NC2CCC(O)CC2)nc(Nc2ccc3c(ccn3Cc3ccccc3)c2)n1 [CGP-082996 (CINK4)]; test: as above; conditions: top dose 5.12 µM; top dose inferred
Procedure: as §1

Row | Cell Line | AUC | IC50 [µM]
102 | AM-38 (glioma, semi-adherent) | 0.986 | > 5.12
103 | COR-L279 (small cell lung carcinoma, suspension) | 0.956 | > 5.12
104 | DOHH-2 (B-cell lymphoma, suspension) | 0.745 | 1.58
105 | GOTO (neuroblastoma, adherent) | 0.929 | > 5.12
106 | H-EMC-SS (chondrosarcoma, adherent) | 0.981 | > 5.12
107 | HA7-RCC (kidney, adherent) | 0.826 | 3.54
108 | HD-MY-Z (Hodgkin lymphoma, adherent) | 0.897 | > 5.12
109 | HL-60 (acute myeloid leukaemia, suspension) | 0.984 | > 5.12
110 | HT-144 (melanoma, adherent) | 0.741 | 1.72
111 | JAR (urogenital system, adherent) | 0.934 | > 5.12
112 | KALS-1 (glioma, adherent) | 0.913 | > 5.12
113 | KASUMI-1 (acute myeloid leukaemia, suspension) | 0.982 | > 5.12
114 | KG-1 (acute myeloid leukaemia, suspension) | 0.98 | > 5.12
115 | KMS-12-BM (myeloma, suspension) | 0.966 | > 5.12
116 | MOLM-13 (acute myeloid leukaemia, suspension) | 0.915 | > 5.12
117 | MPP-89 (mesothelioma, adherent) | 0.903 | > 5.12
118 | MV-4-11 (leukaemia, suspension) | 0.848 | 2.82
119 | MY-M12 (leukaemia, suspension) | 0.931 | > 5.12
120 | MZ7-mel (melanoma, adherent) | 0.913 | > 5.12
121 | NCI-H1581 (large cell lung carcinoma, semi-adherent) | 0.984 | > 5.12
122 | NCI-H1963 (small cell lung carcinoma, suspension) | 0.977 | > 5.12
123 | NU-DUL-1 (B-cell lymphoma, suspension) | 0.945 | > 5.12
124 | QIMR-WIL (acute myeloid leukaemia, suspension) | 0.971 | > 5.12
125 | RL95-2 (endometrium, adherent) | 0.823 | 2.98
126 | RPMI-8226 (myeloma, suspension) | 0.839 | 2.85
127 | THP-1 (acute myeloid leukaemia, suspension) | 0.985 | > 5.12

Lines with a small IC50 respond at low doses; a limit (>, <) means that the fit lies beyond the doses tested. AUC is the area under the same curve over the 256-fold range up to the top dose, as a fraction: 1 means no effect, lower means more sensitive. A top dose marked as inferred was calculated from the reported fits. For some assays here: Where an entry number is given, a second screen of the drug exists; the two often differ.
